# Source: PubChem BioAssay AID686979 (National Center for Advancing Translational Sciences (NCATS), 2013)
# Hit rate of the full screen: of about 420,000 compounds, about 50,000 (12%) were called active. Inconclusive results, whose numbers are uncertain, are shown with a selection of clear calls. The call rests on the fitted dose curve; in most records, active means well fitted inhibition curve with a large enough effect; inconclusive means small, poorly fitted or top-dose-only effect; inactive means flat fitted curve, though single readings scatter. Potencies of inconclusive entries are left out as doubtful fits.
# Assay: qHTS for Inhibitors of human tyrosyl-DNA phosphodiesterase 1 (TDP1): qHTS in cells in presence of CPT; further: nearly all actives have a fitted effect of over 55% in size
# Details: chicken DT40 Tdp1-/-;hTDP1 cells + 20 nM CPT, ATP luminescence, 48 h; series mostly up to 46.2 µM
# Summary of the method: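 Chicken DT40 Tdp1-/- cells complemented with human TDP1, 400 cells/well, exposed to compounds plus 20 nM camptothecin for at least 48 h at 37 C; viability read as ATP content by CellTiter-Glo luminescence.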
# Potency means the concentration at half of the fitted maximal effect; tags describe the fitted curve by direction and shape.
row,SMILES,Potency
1,NS(=O)(=O)c1ccc(NC(=O)CSc2ccc3ccccc3n2)cc1,"inconclusive [inhibitor, single point]"
2,CNS(=O)(=O)c1cn(CC(=O)Nc2ccc(OC)cc2OC)cc1S(=O)(=O)NC,inactive
3,CCOC(=O)[C@]12CCC=C1N(Cc1ccc3c(c1)OCO3)C(=O)[C@H](CC(=O)NCc1ccccc1)C2,"inconclusive [inhibitor, single point]"
4,CC1CCCCC1NC(=S)Nc1cccc(S(=O)(=O)N(C)C)c1 (stereo not given),"inconclusive [inhibitor, single point]"
5,Cc1ccc(-c2ccc(/C=N/NC(=O)CN3CCOCC3)o2)cc1[N+](=O)[O-],active: 23.1 µM
6,COc1ccc(O)c(C(=O)c2cc(C(=O)NCCc3ccccc3)c(=O)n(CCc3ccccc3)c2)c1,active: 18.4 µM
7,O=C(Nc1cccnc1Cl)C1c2ccccc2Oc2ccccc21,"inconclusive [inhibitor, single point]"
8,COc1cc(OC)c(-c2oc3ccccc3c(=O)c2O)c(OC)c1,active: 8.2 µM
9,COc1ccc(S(=O)(=O)N2CCNCC2)cc1,inactive
10,CCC(CC)C(=O)Nc1cc(-c2ccccc2F)nn1-c1ccccc1,"inconclusive [inhibitor, partial curve, poor fit]"
11,O=C(Nc1nc2ccccc2[nH]1)C1CC1,"inconclusive [inhibitor, single point]"
12,COc1ccc(Cn2c(N)c(C#N)c3nc4ccccc4nc32)cc1OC,inactive
13,COc1ccc(OC(C)C(=O)NCCc2nc3ccccc3[nH]2)cc1 (stereo not given),"inconclusive [inhibitor, single point]"
14,COc1cccc(C(=O)COc2ccc(NC(=O)c3ccccc3)cc2)c1,"inconclusive [inhibitor, full curve, poor fit]"
15,CCNC(=S)NN=C1CCC(C(C)(C)C)CC1 (stereo not given),"inconclusive [inhibitor, single point]"
16,O=C(Nc1cccc(-c2cscn2)c1)C1CCN(Cc2ccccn2)CC1,"inconclusive [inhibitor, single point]"
17,Cc1cccc(C2=NN(c3ccc(Br)cc3)[C@@H](C(=O)N3CCOC3=O)[C@@H]2c2ccccc2)c1,"inconclusive [inhibitor, single point]"
18,COC(=O)C1=NN(C(=O)c2ccc(Br)cc2)C(O)(C(C)(C)C)C1 (stereo not given),inactive
19,CN1CCN(C(=O)c2cc(Oc3c(F)c(F)c(F)c(F)c3F)cc(C(=O)N3CCN(C)CC3)c2)CC1,inactive
20,Cc1ccc(C(CCN)c2ccco2)cc1 (stereo not given),"inconclusive [inhibitor, partial curve, poor fit]"
21,CSc1ccccc1-c1nnc(NC(=O)Cc2ccccc2)o1,"inconclusive [inhibitor, single point]"
22,Nc1ccc(S(=O)(=O)c2ccc(N)nc2)cc1,inactive
23,CCOC(=O)c1oc2nc(CC(C)C)c3c(c2c1N)CCC3,"inconclusive [inhibitor, single point]"

row,SMILES,Potency
1,CC(C)N=C(N)N=C(N)Nc1ccc(Cl)cc1,active: 25.9 µM
2,COc1ccc(C2CC(c3ccccc3O)=NN2c2ccccc2)cc1 (stereo not given),inactive
3,OC1(c2cccc(C(F)(F)F)c2)CCN(Cc2nnnn2Cc2ccccc2)CC1,"inconclusive [inhibitor, single point]"
4,Clc1cccc(-c2ccnc3nc(-n4cccc4)nn23)c1,"inconclusive [inhibitor, single point]"
5,COc1ccccc1C(=O)NC(=O)COC(=O)c1ncc(Cl)c(Cl)c1Cl,"inconclusive [inhibitor, partial curve, poor fit]"
6,COc1ccccc1C(=O)Nc1ccc(C(=O)OCc2cc(=O)n3nc(C)sc3n2)cc1,"inconclusive [inhibitor, single point]"
7,CN(C(=O)c1ccc2c(Cl)c3c(nc2c1)CCC3)c1ccccc1F,inactive
8,COCCn1c(C)cc(C(=O)COC(=O)c2ccc([N+](=O)[O-])o2)c1C,"inconclusive [inhibitor, single point]"
9,CC1(C)Cc2cccc(OCC(O)CN3CCN(c4ccccn4)CC3)c2O1 (stereo not given),"inconclusive [inhibitor, single point]"
10,COc1ccc(NC(=O)CCCNS(=O)(=O)c2cccs2)cc1,inactive
11,CC(=O)NC(c1cccc(F)c1)c1nc(/C=C/c2ccccc2)cs1 (stereo not given),"inconclusive [inhibitor, single point]"
12,COc1ccc(CCN2C(=O)CN(C3CCCCCC3)C(=O)C2c2ccc(OC(C)C)c(OC)c2)cc1OC (stereo not given),"inconclusive [inhibitor, single point]"
13,Cc1ccc(NC(=O)Cc2ccc(-c3ccccc3)cc2)nc1,"inconclusive [inhibitor, single point]"
14,O=C(CSc1nc2ccccc2nc1N1CCOCC1)Nc1ccccc1F,"inconclusive [inhibitor, single point]"
15,CC(=Nc1cccc(C)c1)c1sc2ccccc2c1O,inactive
16,COc1ccc(-n2cnc(N)c2C(=O)c2cccc([N+](=O)[O-])c2)cc1,active: 16.4 µM
17,COc1cc2nc(CCNCc3ccccc3)nc(NC3CCN(C)CC3)c2cc1OC,active: 5.62 µM
18,Cc1ccc(NC(=O)Cn2c(-c3cncs3)nc3ccccc32)c(Br)c1,"inconclusive [inhibitor, single point]"
19,Cc1ccc(CNC(=O)CN2C(=O)C3(SCC(=O)N3c3ccc(F)cc3)c3ccccc32)cc1 (stereo not given),"inconclusive [inhibitor, single point]"
20,COc1ccccc1NS(=O)(=O)c1cc(C(=O)NCC(c2ccco2)N2CCCCC2)ccc1C (stereo not given),"inconclusive [inhibitor, single point]"
21,O=C(c1cccc(Br)c1)N1CCCc2ccccc21,"inconclusive [inhibitor, single point]"
22,CN(CC(=O)Nc1ccc(Cl)c(C(F)(F)F)c1)C(=O)C1CSC2(C)CCC(=O)N12 (stereo not given),"inconclusive [inhibitor, single point]"
